# Test results as given in the supplement of paper PMC4604168 (melanoma cell lines).
# Some of the results follow. Repeats are few or missing, and single values can be far off.
# How the values were obtained:
# Test in all cases: cell count relative to DMSO control; melanoma cells; higher = more viable cells
# Conditions in all cases: library dose: standard library concentration; 72 h
# G361 = test system: G361
# IPC-298 = test system: IPC-298
# IST-MEL1 = test system: IST-MEL1
# LB2518-MEL = test system: LB2518-MEL
# LOXIMVI = test system: LOXIMVI
# MEL-HO = test system: MEL-HO
# MZ2-MEL = test system: MZ2-MEL
# MeWo = test system: MeWo
# RPMI7951 = test system: RPMI7951
# RVH-421 = test system: RVH-421
# 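Also: cells treated in 1,536-well plates, then fixed and DAPI-stained, with nuclei counted from automated high-throughput microscope images.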
SMILES,cell count (G361) [%],cell count (IPC-298) [%],cell count (IST-MEL1) [%],cell count (LB2518-MEL) [%],cell count (LOXIMVI) [%],cell count (MEL-HO) [%],cell count (MZ2-MEL) [%],cell count (MeWo) [%],cell count (RPMI7951) [%],cell count (RVH-421) [%]
"C=C(c1ccc(C(=O)O)cc1)c1cc2c(cc1C)C(C)(C)CCC2(C)C [Bexarotene] + COc1cc2ncnc(Nc3ccc(Oc4ccccc4)cc3)c2cc1OC [SrcI1] (first compound 10 µM, partner dose 10 µM)",23.6,58.3,69.5,104,64.2,72.1,65.5,79.3,11.9,91.5
"CN(c1ncccc1CNc1nc(Nc2ccc3c(c2)CC(=O)N3)ncc1C(F)(F)F)S(C)(=O)=O + CN1CCN(c2ccc3nc(-c4c(N)c5c(F)cccc5[nH]c4=O)[nH]c3c2)CC1 [Dovitinib] (first compound 0.4 µM, partner dose 0.5 µM)",65.1,62,57.5,60.1,129,63.9,48.1,49.5,43.2,76.2
"NC1(c2ccc(-c3nc4ccn5c(=O)[nH]nc5c4cc3-c3ccccc3)cc2)CCC1 + C[C@]1(c2nc3c(C(N)=O)cccc3[nH]2)CCCN1 [Veliparib] (first compound 2 µM, partner dose 7 µM)",92.5,91.3,85.8,74.5,73.5,76.4,95.4,77.8,75.7,67.7
"C=C(c1ccc(C(=O)O)cc1)c1cc2c(cc1C)C(C)(C)CCC2(C)C [Bexarotene] + COC(=O)c1sccc1S(=O)(=O)Nc1ccc(Nc2ccccc2)cc1OC [GSK0660] (first compound 10 µM, partner dose 5 µM)",94.2,71.5,83.9,122,129,86.3,63.9,83,60.4,86.3
"NC1(c2ccc(-c3nc4ccn5c(=O)[nH]nc5c4cc3-c3ccccc3)cc2)CCC1 + CN(C)S(=O)(=O)c1ccc2c(c1)/C(=C/c1cc3c([nH]1)CCCC3)C(=O)N2 [SU6656] (first compound 2 µM, partner dose 2 µM)",68.6,85.9,66.9,67.2,94.2,64.3,101,76.7,56.7,101
"CS(=O)(=O)c1ccc(C(=O)Nc2ccc(Cl)c(-c3ccccn3)c2)c(Cl)c1 [vismodegib] + O=C(Nc1ccccc1)c1cc([N+](=O)[O-])ccc1Cl [GW9662] (first compound 5 µM, partner dose 10 µM)",107,107,98.1,79.8,79.5,105,99.3,79.8,102,85.5
"CCCS(=O)(=O)Nc1ccc(F)c(C(=O)c2c[nH]c3ncc(Cl)cc23)c1F + COc1cc(N2CCC(N3CCN(C)CC3)CC2)ccc1Nc1ncc(Cl)c(Nc2ccccc2S(=O)(=O)C(C)C)n1 [NVP-TAE684] (first compound 0.4 µM, partner dose 0.4 µM)",56.5,71.7,86.1,88.1,237,72.8,68.2,70,74.3,79.5
"CS(=O)(=O)c1ccc(C(=O)Nc2ccc(Cl)c(-c3ccccn3)c2)c(Cl)c1 [vismodegib] + CCN(CC)CCNC(=O)c1c(C)[nH]c(/C=C2\C(=O)Nc3ccc(F)cc32)c1C [sunitinib] (first compound 5 µM, partner dose 2 µM)",65.7,71.3,107,61.3,118,95.5,91.8,56.8,80.9,74.7
"NC1(c2ccc(-c3nc4ccn5c(=O)[nH]nc5c4cc3-c3ccccc3)cc2)CCC1 + CS(=O)(=O)CCNCc1ccc(-c2ccc3ncnc(Nc4ccc(OCc5cccc(F)c5)c(Cl)c4)c3c2)o1 [lapatinib] (first compound 2 µM, partner dose 4 µM)",16.3,76.2,66.6,66.2,84.6,61,63.4,75.9,14.6,60.3
"CN(c1ncccc1CNc1nc(Nc2ccc3c(c2)CC(=O)N3)ncc1C(F)(F)F)S(C)(=O)=O + COc1ccc(COc2ccc(Cc3cnc(N)nc3N)cc2OC)cc1 [GW2580] (first compound 0.4 µM, partner dose 5 µM)",74.5,86.8,101,87.7,191,92.9,68.8,68.7,87.5,110
"C=C(c1ccc(C(=O)O)cc1)c1cc2c(cc1C)C(C)(C)CCC2(C)C [Bexarotene] + CCc1ccc(CCOc2ccc(CC3SC(=O)NC3=O)cc2)nc1 [pioglitazone] (first compound 10 µM, partner dose 10 µM)",86.3,77.1,91.7,103,163,87,87,76.3,58.8,78.6
"NC1(c2ccc(-c3nc4ccn5c(=O)[nH]nc5c4cc3-c3ccccc3)cc2)CCC1 + CCc1ccc(CCOc2ccc(CC3SC(=O)NC3=O)cc2)nc1 [pioglitazone] (first compound 2 µM, partner dose 10 µM)",72.7,78.8,71.9,73.9,66.1,66.3,101,67.1,67,84.4
"CN(c1ncccc1CNc1nc(Nc2ccc3c(c2)CC(=O)N3)ncc1C(F)(F)F)S(C)(=O)=O + Cc1nc(Nc2ncc(C(=O)Nc3c(C)cccc3Cl)s2)cc(N2CCN(CCO)CC2)n1 [dasatanib] (first compound 0.4 µM, partner dose 0.02 µM)",54.1,71.4,67.4,78,12.3,63.9,16,94.2,34.3,53.4
"CCCS(=O)(=O)Nc1ccc(F)c(C(=O)c2c[nH]c3ncc(Cl)cc23)c1F + Cn1cncc1[C@@](N)(c1ccc(Cl)cc1)c1ccc2c(c1)c(-c1cccc(Cl)c1)cc(=O)n2C [tipifarnib] (first compound 0.4 µM, partner dose 0.05 µM)",54.8,98.4,76.2,79.4,73.5,76.2,106,83.4,83.5,66
"CCCS(=O)(=O)Nc1ccc(F)c(C(=O)c2c[nH]c3ncc(Cl)cc23)c1F + CN(NC(=O)CC(=O)NN(C)C(=S)c1ccccc1)C(=S)c1ccccc1 [STA4783] (first compound 0.4 µM, partner dose 0.03 µM)",29.6,56.6,8.24,23.6,90.5,74.5,95.7,14.8,71.4,36.2
"CCCS(=O)(=O)Nc1ccc(F)c(C(=O)c2c[nH]c3ncc(Cl)cc23)c1F + COc1ccc(Cl)c(Nc2nc3ccccc3nc2NS(=O)(=O)c2cccc(NC(=O)C(C)(C)N)c2)c1 [XL147] (first compound 0.4 µM, partner dose 4 µM)",59,51,60,72.3,92.9,51.5,59.7,84.8,112,54.7
"C=C(c1ccc(C(=O)O)cc1)c1cc2c(cc1C)C(C)(C)CCC2(C)C [Bexarotene] + COc1cc(N2CCC(N3CCN(C)CC3)CC2)ccc1Nc1ncc(Cl)c(Nc2ccccc2S(=O)(=O)C(C)C)n1 [NVP-TAE684] (first compound 10 µM, partner dose 0.4 µM)",68.2,90.5,94.4,96.4,108,84.4,94.5,68.7,75.8,85.4
"CS(=O)(=O)c1ccc(C(=O)Nc2ccc(Cl)c(-c3ccccn3)c2)c(Cl)c1 [vismodegib] + COc1ccc2c(c1)CCC1C2CCC2(C)C(NCCCCCCN3C(=O)C=CC3=O)CCC12 [U73122] (first compound 5 µM, partner dose 2 µM)",87.5,105,89.9,85.1,76.7,101,97.5,62.9,35.8,66.5
"C=C(c1ccc(C(=O)O)cc1)c1cc2c(cc1C)C(C)(C)CCC2(C)C [Bexarotene] + COc1ccc2c(c1)CCC1C2CCC2(C)C(NCCCCCCN3C(=O)C=CC3=O)CCC12 [U73122] (first compound 10 µM, partner dose 2 µM)",64.6,71.5,81.8,87.9,68.6,82.6,69.5,59.3,26.3,74.5
"NC1(c2ccc(-c3nc4ccn5c(=O)[nH]nc5c4cc3-c3ccccc3)cc2)CCC1 + C=CCNC1=C2C[C@@H](C)C[C@H](OC)[C@H](O)[C@@H](C)/C=C(\C)[C@H](OC(N)=O)[C@@H](OC)/C=C\C=C(/C)C(=O)NC(=CC1=O)C2=O [Tanespimycin] (first compound 2 µM, partner dose 0.01 µM)",73.9,92.6,41.6,73.2,113,77.9,108,77.4,35.5,72.8
"CN(c1ncccc1CNc1nc(Nc2ccc3c(c2)CC(=O)N3)ncc1C(F)(F)F)S(C)(=O)=O + O=C1NC(=O)/C(=C/c2ccc(-c3ccc(F)cc3O)o2)S1 [AS252424] (first compound 0.4 µM, partner dose 5 µM)",76.3,83.6,88.6,94.6,85.9,74.1,83.7,85.3,86.9,96.9
"CCCS(=O)(=O)Nc1ccc(F)c(C(=O)c2c[nH]c3ncc(Cl)cc23)c1F + COC(=O)c1sccc1S(=O)(=O)Nc1ccc(Nc2ccccc2)cc1OC [GSK0660] (first compound 0.4 µM, partner dose 5 µM)",68.5,74.2,93.6,85,105,82.4,69.1,97.3,99.5,65.2
